Assay results reported in the supplement of paper PMC10126150.
Values marked as one replicate rest on one cluster of the flow cell; about a third of the high ones do not repeat.

tested on: ATP; assay: switch fluorescence ratio, 500 uM ATP over buffer (Cy3 cluster intensity, sum of 5 cycles each) (fold (ratio)); higher = stronger signal-on switching upon ATP binding; sequences stand for … in TCGTCGGCAGCGTCAGATGTGTATAAGAGACAGTTTTTTTTTTTTTTTTTTTTTTTTT…TC; settings: aptamer strand: ATP DNA aptamer (quencher-CACCTGGGGGAGTATTGCGGAGGAAGG + anchor), 100 nM annealed; ATP concentration: 500 uM; one replicate
How it was run: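 The fluorescence ratio divides summed target-cycle Cy3 intensity by summed buffer-cycle Cy3 intensity for each cluster and is averaged per switch-domain sequence. Cy3-labelled switching-strand clusters on a modified Illumina MiSeq flow-cell were annealed to 100 nM quencher-labelled ATP aptamer, then imaged in selection buffer and again after 15 min with 500 uM ATP at 22 °C. Five such cycles were run, with NaOH stripping and re-annealing between them, and clusters outside 100-1000 RFU were excluded.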
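Note: ATP exposure 15 min at 22 °C before imaging.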

Sequence	switch fluorescence ratio
TACCCTTCTC	1.46
TACCGATTCC	1.43
TACCGGAGTC	1.19
TACCGGCCGT	1.02
TACCGGTTCC	1.03
TACCGTTTTC	0.984
TACCTGCTCT	1.05
TACCTTA	1.1
TACCTTGCCT	1.26
TACGAGACTA	1.09
TACGAGATTA	1.03
TACGATCAG	0.973
TACGATTAGA	1.08
TACGCAGCAT	6.07
TACGCCGTG	0.975
TACGGAAG	1.03
TACGGAAGTC	1
TACGGAGTAA	1.11
TACGGAGTGA	1.11
TACGGCATTT	0.985
TACGGCCACA	1.22
TACGGCTT	1.07
TACGGGTCTC	0.993
TACGGTAGTG	0.996
TACGGTGATG	0.998
TACGTAGATA	1.06

Sequence	switch fluorescence ratio
TACGTTCTAC	1.17
TACTAAAGAG	0.932
TACTACACAT	1.32
TACTACGGGC	0.964
TACTACTGTG	0.997
TACTAGACGC	1.13
TACTAGCTTT	0.985
TACTAGGACA	1.08
TACTAGGCA	1.01
TACTAGGTAC	1.05
TACTATAATA	1.01
TACTATAGAG	1.05
TACTATCCGT	1.01
TACTATGCTC	1.05
TACTCGCCCC	1.44
TACTCGGAT	0.989
TACTCGTCA	1.03
TACTCTAGGG	1
TACTCTTTAA	0.984
TACTGCTGGG	1.01
TACTGGATAG	0.995
TACTGGCCAG	0.99
TACTGGCTTC	0.996
TACTGTGAAT	0.957
TACTGTGCTG	1.01
TACTGTGTGC	0.975

Sequence	switch fluorescence ratio
TACTTACCGG	1.11
TACTTCTGAA	1.03
TACTTGCTGC	1.07
TACTTGGGGG	1.01
TACTTTAGGA	0.987
TACTTTATGG	0.963
TACTTTGA	0.979
TAGAAAAGCG	1
TAGAAAGATG	1
TAGAAATGC	1.46
TAGAACATA	1.01
TAGAAGAATT	0.982
TAGAAGCACT	1.05
TAGAAGGCGG	1.01
TAGAAGGGT	0.966
TAGAAGGGTG	1.01
TAGAATTCCT	0.998
TAGAATTCG	0.967
TAGACAGCTT	1
TAGACCATA	1.08
TAGACGCACA	1.98
TAGACGGCC	1
TAGACTAAGA	1
TAGACTGCTT	1.01
TAGACTTCA	1.02
TAGAGAATGT	0.993

Sequence	switch fluorescence ratio
TAGAGCACAT	1.09
TAGAGCACTA	1.08
TAGAGCATAG	1.08
TAGAGCGATT	1.06
TAGAGTCATG	1
TAGAGTCTTG	1.02
TAGAGTGTAG	1
TAGAGTTACT	1.01
TAGATATGAA	1.02
TAGATGCGGA	1.02
TAGATGGGCT	1.01
TAGATTGTTG	0.96
TAGATTTCCA	0.953
TAGCAACCA	1
TAGCACGTTT	0.974
TAGCATCCAC	1.24
TAGCATGAA	1.03
TAGCATGCGT	0.962
TAGCATGGAG	0.994
TAGCATTGGC	0.969
TAGCCAGGAT	1.01
TAGCCCCGTC	0.965
TAGCCCGAGA	1.01
TAGCCCGGAA	1.2
TAGCCGCTGC	1.14
TAGCCTTGAA	0.961

Sequence	switch fluorescence ratio
TAGCCTTGCT	1.02
TAGCGCGTTA	1.02
TAGCGGACAA	1.07
TAGCGGGGAG	1.02
TAGCGGTCTG	1
TAGCGGTGGA	1.01
TAGCGGTTCA	1
TAGCGTTGGG	0.991
TAGCGTTTG	0.985
TAGCTCGATC	1.02
TAGCTGGGCA	1.02
TAGCTTGGAA	0.963
TAGGAAACG	0.983
TAGGAAAGCA	1.05
TAGGAACGGG	0.992
TAGGAACTGT	0.904
TAGGACAAGG	0.953
TAGGACGCCT	1
TAGGAGGCT	1
TAGGATA	0.994
TAGGATAAGA	1.04
TAGGATTAGT	0.999
TAGGCACTTG	1.04
TAGGCATAGC	1.01
TAGGCATATC	4.11
TAGGCATTT	0.999

Sequence	switch fluorescence ratio
TAGGCCATAC	2.33
TAGGCGAAGG	1.03
TAGGCTATGT	0.958
TAGGCTGAAC	1.01
TAGGCTGTCA	0.98
TAGGCTTT	1.03
TAGGGAATTT	0.999
TAGGGACCAA	1.01
TAGGGCAGAC	1.12
TAGGGCCCGT	1.03
TAGGGGAGA	1.04
TAGGGGGATA	1.03
TAGGGTTAGA	1.03
TAGGGTTAGG	0.961
TAGGGTTAT	0.963
TAGGTAAATA	0.98
TAGGTACGGG	1.04
TAGGTATTCG	1.07
TAGGTCCAAC	0.992
TAGGTCCGTG	0.959
TAGGTCCTGT	1
TAGGTGCCG	0.994
TAGGTGGAAC	1.02
TAGGTGGTCA	0.985
TAGGTTATTT	1
TAGGTTGCTC	0.97

Sequence	switch fluorescence ratio
TAGGTTTATC	1.02
TAGGTTTTC	0.998
TAGTAAACTC	0.989
TAGTAACCCT	1.06
TAGTAACTT	1.02
TAGTAATACA	1.62
TAGTACACTC	1.04
TAGTACGCCT	1
TAGTACGGG	0.999
TAGTACTATT	0.977
TAGTAGAGGG	0.958
TAGTAGCATT	1
TAGTAGTACT	1.03
TAGTAGTTCC	1.06
TAGTATCATT	0.945
TAGTATCTGT	0.97
TAGTATCTTA	0.993
TAGTATGTAC	1.06
TAGTCAAAGA	1.01
TAGTCCTT	0.972
TAGTCGCCTG	0.97
TAGTCGTAGG	1.04
TAGTCTACAT	1.05
TAGTCTGACA	0.991
TAGTCTTCCA	1
TAGTCTTTAA	1.03

Sequence	switch fluorescence ratio
TAGTGATAGC	1
TAGTGCACGC	0.977
TAGTGCATCG	1.05
TAGTGCCTCA	1
TAGTGGCACC	1
TAGTGGTAAG	0.974
TAGTGGTCCG	0.914
TAGTGTAACT	1.02
TAGTTATAT	0.999
TAGTTCAACT	0.974
TAGTTCACTA	1
TAGTTCAGTA	0.999
TAGTTCCTCC	2.17
TAGTTCGTGT	0.983
TAGTTCTTT	0.95
TAGTTGAAGC	0.997
TAGTTGCCGG	0.971
TAGTTGGAGC	1.05
TAGTTGGGTA	0.937
